Reference: article PMC9365698 (2022)

Legend:
EFNB1 = target: T1, EFNB1 (Homo sapiens); assay: SPR
T1 chain: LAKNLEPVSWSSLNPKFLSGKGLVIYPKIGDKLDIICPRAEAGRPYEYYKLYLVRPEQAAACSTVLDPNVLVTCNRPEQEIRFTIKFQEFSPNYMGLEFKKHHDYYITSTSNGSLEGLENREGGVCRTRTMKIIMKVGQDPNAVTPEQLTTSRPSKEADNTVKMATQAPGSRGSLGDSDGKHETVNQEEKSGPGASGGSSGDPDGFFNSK

IL1RAP = IL1RAP (Homo sapiens); assay: SPR

| koff (EFNB1) [s⁻¹] | koff (IL1RAP) [s⁻¹] | Binder |
| --- | --- | --- |
| ~1.3 | – | EPHA4 (protein) not shown |
| – | ~1.8 | PTPRF (protein) not shown |
